Experimental data: the supplement of paper PMC3334620
In all, about 33,000 sequences were measured (“E-score (-0.5 to 0.5)”: median about -0.012, highest 2% from about 0.29 on). The list shows a part of the results.

Target: T1, Ybr033w (UniProt P38073)
T1 sequence: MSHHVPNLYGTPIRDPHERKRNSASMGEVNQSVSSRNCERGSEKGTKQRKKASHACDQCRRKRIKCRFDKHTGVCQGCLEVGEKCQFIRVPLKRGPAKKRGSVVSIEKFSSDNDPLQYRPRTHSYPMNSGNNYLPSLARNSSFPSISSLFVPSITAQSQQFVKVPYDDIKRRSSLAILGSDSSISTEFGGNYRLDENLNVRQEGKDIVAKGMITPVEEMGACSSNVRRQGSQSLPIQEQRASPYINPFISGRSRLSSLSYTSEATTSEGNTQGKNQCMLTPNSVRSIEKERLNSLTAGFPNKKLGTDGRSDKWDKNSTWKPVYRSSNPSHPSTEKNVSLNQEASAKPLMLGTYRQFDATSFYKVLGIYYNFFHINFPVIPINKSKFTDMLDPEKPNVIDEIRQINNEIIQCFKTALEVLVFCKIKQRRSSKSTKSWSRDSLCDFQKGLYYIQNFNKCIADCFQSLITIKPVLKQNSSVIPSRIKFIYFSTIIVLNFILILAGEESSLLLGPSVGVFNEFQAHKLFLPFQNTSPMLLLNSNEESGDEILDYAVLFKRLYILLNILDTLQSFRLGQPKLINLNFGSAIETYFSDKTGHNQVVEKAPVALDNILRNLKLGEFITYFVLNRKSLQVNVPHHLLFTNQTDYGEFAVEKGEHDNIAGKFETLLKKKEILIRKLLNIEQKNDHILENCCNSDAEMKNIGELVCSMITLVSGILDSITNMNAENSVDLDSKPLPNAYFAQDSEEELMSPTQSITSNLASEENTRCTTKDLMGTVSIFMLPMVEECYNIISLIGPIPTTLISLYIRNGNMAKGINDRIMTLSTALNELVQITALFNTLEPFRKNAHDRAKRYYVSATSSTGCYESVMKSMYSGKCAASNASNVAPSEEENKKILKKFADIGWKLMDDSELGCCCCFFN
Test: PBM E-score (8-mer binding enrichment) (E-score (-0.5 to 0.5)); higher = stronger / more preferred TF binding; most listed sequences are background and not binding sites
Conditions: protein concentration: 200 nM; construct: GST-full length
Procedure, shortened: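 For each ungapped eight-base word taken together with its reverse complement, the Universal PBM Analysis Suite assigned an E-score. Binding data came from GST-tagged yeast transcription factors, applied at about 100-200 nM, on universal all-10-mer Agilent arrays made double-stranded by primer extension. Fluorescent anti-GST marked bound protein, and scans were normalised with masliner.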

| Sequence | PBM E-score |
| --- | --- |
| GAACCTAC | 0.0534 |
| ACTTAGTA | 0.137 |
| GCCGCAAC | -0.0949 |
| ATACAGAG | -0.0515 |
| ATCAACGC | -0.00761 |
| GGTGCCCA | -0.316 |
| AGTACGTG | -0.00447 |
| AAAATCCC | 0.17 |
| GCTGACAA | -0.0525 |
| CTTGCAAC | 0.111 |
| GATAGCGA | -0.0657 |
| CCTGTGCC | -0.18 |
| CTGGTCCA | -0.17 |
| ATACCGCA | -0.0369 |
| CTCAGGCA | -0.0691 |
| AGAAGAAG | -0.0313 |
| CCAGCTAG | -0.177 |
| ATACAGGG | 0.0175 |
| CTCTACTA | 0.0534 |
| CAGTCTCG | -0.174 |
| ATACGCGA | 0.0373 |
| CCGATGCA | -0.0724 |
| AATACGAT | 0.174 |
| GTTGGCGA | -0.0105 |
| CCGGATCA | 0.345 |

| Sequence | PBM E-score |
| --- | --- |
| ACACTTAT | 0.0459 |
| CACTTCAG | -0.0545 |
| AATCCTCT | -0.0219 |
| ACCGTACT | 0.0718 |
| ACCGTTGA | -0.0185 |
| CTGACCCC | -0.349 |
| CCACTCCC | -0.103 |
| ATCTATAC | 0.16 |
| AACACAGC | 0.17 |
| CGGCTTGC | 0.0511 |
| GGTTGGGA | -0.154 |
| CATATCGA | 0.0399 |
| CAGGCGGC | -0.29 |
| CTCAACAC | 0.111 |
| AAGGTATG | -0.0197 |
| ATTCGAGA | 0.023 |
| ACTTGTGA | 0.0861 |
| ACCCACCC | 0.0336 |
| CTCCCGCA | -0.136 |
| GACATCAA | 0.0415 |
| GGTAGTAC | -0.0513 |
| AACACAAG | 0.097 |
| TGAAAACA | 0.142 |
| AGAAAGCA | 0.0775 |
| GCCCGAAC | -0.226 |

| Sequence | PBM E-score |
| --- | --- |
| ACTCCGTC | 0.0421 |
| AAGTGGGA | 0.00518 |
| CTCTCGGC | -0.0969 |
| CCTCAACC | -0.198 |
| AGCTAGCC | 0.0418 |
| GGAAGGAA | 0.109 |
| AGTCCCTC | -0.194 |
| AAGCCTGC | -0.125 |
| CCGCTGTC | -0.182 |
| CACGTAAG | 0.047 |
| AAATACTA | 0.224 |
| AAATTTGC | 0.108 |
| CCAGCAAA | 0.186 |
| TATACCGA | 0.0583 |
| ATTGACAA | 0.0273 |
| CAATAGGG | -0.00615 |
| ATAGCTGG | -0.0109 |
| AGGGGCGG | -0.162 |
| ACCTAGCG | -0.149 |
| AAACCCAC | 0.0996 |
| ACATTGTC | 0.187 |
| CGAGTCCC | -0.111 |
| CATGGGTA | -0.118 |
| ATAATCAG | 0.092 |
| CGTATGAC | 0.058 |

| Sequence | PBM E-score |
| --- | --- |
| GTCTGGTA | -0.03 |
| GAGGACCC | -0.165 |
| TCTACCCA | 0.0846 |
| GGCTCGAA | -0.0492 |
| GATGAAGC | 0.00792 |
| ACCATAGC | -0.038 |
| AAAAATTC | 0.228 |
| ACACGTTA | -0.136 |
| AAAAGCAC | -0.0355 |
| CACCTCCA | -0.0297 |
| CACGTGCG | -0.197 |
| TAACAACA | 0.174 |
| ATTAGCCG | 0.0285 |
| CTTGTTGC | 0.0201 |
| CACTAATA | 0.0444 |
| AGACACCT | -0.207 |
| AGCATGCA | -0.037 |
| AGCTCTAA | -0.108 |
| CTCAAGAG | 0.00579 |
| ATATTGTA | 0.255 |
| CCTTACCG | 0.00572 |
| ATGTAGAC | -0.0421 |
| TAGGATGA | 0.285 |
| GTATTGTA | 0.212 |
| ATAGTTAG | 0.172 |

| Sequence | PBM E-score |
| --- | --- |
| CAATGATC | 0.0568 |
| ATTGGACA | 0.119 |
| ATAGTACG | 0.147 |
| CATCGATG | 0.0683 |
| AAGCCAAG | -0.0174 |
| CTGCGACA | 0.0412 |
| GGGCTACC | -0.267 |
| CACACGGA | -0.111 |
| CCACGGGC | -0.294 |
| AGATTAAC | 0.199 |
| ATACCAGG | 0.0791 |
| GTTTAAGA | -0.0128 |
| ACAATTGA | 0.205 |
| ACGCAGAA | -0.0292 |
| ACCGCAGC | -0.194 |
| AGTTTGAA | 0.196 |
| CTCTCAGC | -0.257 |
| CCCGCTCG | -0.27 |
| ATCACTCG | 0.0344 |
| CCAGGATC | -0.0843 |
| CCTAAAGG | -0.189 |
| GTTTTAGA | 0.113 |
| AGCTGCAG | -0.0809 |
| AGACTGCA | -0.156 |
| AGCAGGTC | -0.151 |

| Sequence | PBM E-score |
| --- | --- |
| AACAGGAA | 0.107 |
| CATCTGTC | -0.235 |
| CCCAAATC | 0.0208 |
| CCAGTCCA | -0.173 |
| GGAGCGCC | -0.27 |
| CCTCCGAC | -0.349 |
| CCACTACC | -0.149 |
| CTAACACA | 0.198 |
| CCCGAGCC | -0.145 |
| ATGTTAGA | 0.0352 |
| CTATTATA | 0.125 |
| AAGCACTA | 0.111 |
| TATTGGCA | 0.0828 |
| CACTAGGA | -0.129 |
| GCTCCTTA | 0.0831 |
| AACTACGA | 0.111 |
| TCGCCCCA | -0.239 |
| CTCGACCC | -0.281 |
| TATCTGAA | 0.14 |
| AAGACGGA | 0.0226 |
| AATTTCGA | 0.0715 |
| ATAGGAGC | -0.187 |
| GAAGAGAA | 0.155 |
| CTAGACAC | 0.00532 |
| GTAGATTA | 0.216 |

| Sequence | PBM E-score |
| --- | --- |
| TGCAGGAA | 0.0984 |
| AAAAACCG | 0.134 |
| ATAGGCTA | -0.0312 |
| CCTAATTC | 0.145 |
| GGACCCCA | -0.177 |
| ACCTCTAC | 0.04 |
| CGGTGCAG | -0.204 |
| GAGAGGTA | -0.223 |
| CAACTTTC | 0.024 |
| GTTAACAA | 0.0731 |
| AACAGTTC | 0.107 |
| CTCTTTGC | -0.202 |
| GCCTCCGC | -0.146 |
| ACTCGACG | 0.104 |
| CCTCGGAC | -0.165 |
| GCGCCAAA | -0.031 |
| GTCGCACA | -0.0673 |
| CCGATTAA | 0.154 |
| GCCGTCCC | -0.219 |
| CGTAACCC | -0.0532 |
| AATACTTC | 0.21 |
| CATTGTCC | 0.0695 |
